These results are taken from the supplement of paper PMC12067093, “Discovery and optimisation of a covalent ligand for TRIM25 and its application to targeted protein ubiquitination” (Chemical Science, 2025).

About 21,000 targets were measured; listed, in parts, are those with the largest changes and a random draw of the rest.
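Note: competitive chemoproteomic profiling in live THP-1 cells with an iodoacetamide desthiobiotin (IA-DTB) probe, comparing probe-labelled peptide intensities in compound-treated cells against DMSO-treated controls.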

UniProt Q96PV6, sequence (Q96PV6 whole entry, looked up): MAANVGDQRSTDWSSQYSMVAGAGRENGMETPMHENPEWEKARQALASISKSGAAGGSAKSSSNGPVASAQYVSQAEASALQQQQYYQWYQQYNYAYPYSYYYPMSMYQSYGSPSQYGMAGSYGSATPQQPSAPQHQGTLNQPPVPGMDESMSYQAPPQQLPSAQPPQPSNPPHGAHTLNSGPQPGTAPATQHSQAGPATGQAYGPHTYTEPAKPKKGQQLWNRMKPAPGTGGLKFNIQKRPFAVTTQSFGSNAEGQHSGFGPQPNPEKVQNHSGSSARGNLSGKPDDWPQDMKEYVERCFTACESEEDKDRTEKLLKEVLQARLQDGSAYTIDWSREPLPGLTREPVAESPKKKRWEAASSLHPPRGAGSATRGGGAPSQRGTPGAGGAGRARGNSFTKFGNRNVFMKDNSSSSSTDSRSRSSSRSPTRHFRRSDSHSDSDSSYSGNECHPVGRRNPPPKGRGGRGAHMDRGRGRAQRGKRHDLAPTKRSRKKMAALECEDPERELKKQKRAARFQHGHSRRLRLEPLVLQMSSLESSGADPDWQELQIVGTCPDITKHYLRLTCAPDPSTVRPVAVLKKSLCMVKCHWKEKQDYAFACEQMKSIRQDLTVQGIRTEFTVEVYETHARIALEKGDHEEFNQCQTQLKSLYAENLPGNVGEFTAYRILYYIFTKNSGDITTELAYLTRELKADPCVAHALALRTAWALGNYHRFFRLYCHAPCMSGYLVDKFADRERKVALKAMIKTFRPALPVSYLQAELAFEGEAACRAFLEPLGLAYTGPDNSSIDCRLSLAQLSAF
UniProt P01130, sequence (P01130 whole entry, looked up): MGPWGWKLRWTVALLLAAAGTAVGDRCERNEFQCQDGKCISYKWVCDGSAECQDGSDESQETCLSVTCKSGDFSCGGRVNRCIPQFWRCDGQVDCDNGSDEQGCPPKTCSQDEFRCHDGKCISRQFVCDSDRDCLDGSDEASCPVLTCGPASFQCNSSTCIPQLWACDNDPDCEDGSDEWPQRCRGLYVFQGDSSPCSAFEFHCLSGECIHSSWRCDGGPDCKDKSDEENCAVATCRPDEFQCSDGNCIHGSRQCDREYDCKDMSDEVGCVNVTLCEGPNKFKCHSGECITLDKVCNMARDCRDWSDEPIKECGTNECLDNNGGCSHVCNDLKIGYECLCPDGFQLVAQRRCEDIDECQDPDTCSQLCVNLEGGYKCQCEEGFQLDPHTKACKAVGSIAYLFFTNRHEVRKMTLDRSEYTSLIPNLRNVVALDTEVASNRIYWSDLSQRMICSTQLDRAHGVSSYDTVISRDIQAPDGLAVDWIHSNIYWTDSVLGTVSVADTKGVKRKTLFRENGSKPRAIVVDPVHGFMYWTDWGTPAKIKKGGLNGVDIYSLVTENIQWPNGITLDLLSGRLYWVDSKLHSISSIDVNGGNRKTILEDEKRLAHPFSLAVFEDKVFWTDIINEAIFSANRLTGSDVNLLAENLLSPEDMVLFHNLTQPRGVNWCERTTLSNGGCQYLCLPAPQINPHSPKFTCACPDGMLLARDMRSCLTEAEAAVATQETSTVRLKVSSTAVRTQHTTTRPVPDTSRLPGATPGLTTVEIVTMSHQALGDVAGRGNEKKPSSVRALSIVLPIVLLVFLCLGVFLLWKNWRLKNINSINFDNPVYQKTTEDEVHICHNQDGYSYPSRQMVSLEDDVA
UniProt P02545, sequence (P02545 whole entry, looked up): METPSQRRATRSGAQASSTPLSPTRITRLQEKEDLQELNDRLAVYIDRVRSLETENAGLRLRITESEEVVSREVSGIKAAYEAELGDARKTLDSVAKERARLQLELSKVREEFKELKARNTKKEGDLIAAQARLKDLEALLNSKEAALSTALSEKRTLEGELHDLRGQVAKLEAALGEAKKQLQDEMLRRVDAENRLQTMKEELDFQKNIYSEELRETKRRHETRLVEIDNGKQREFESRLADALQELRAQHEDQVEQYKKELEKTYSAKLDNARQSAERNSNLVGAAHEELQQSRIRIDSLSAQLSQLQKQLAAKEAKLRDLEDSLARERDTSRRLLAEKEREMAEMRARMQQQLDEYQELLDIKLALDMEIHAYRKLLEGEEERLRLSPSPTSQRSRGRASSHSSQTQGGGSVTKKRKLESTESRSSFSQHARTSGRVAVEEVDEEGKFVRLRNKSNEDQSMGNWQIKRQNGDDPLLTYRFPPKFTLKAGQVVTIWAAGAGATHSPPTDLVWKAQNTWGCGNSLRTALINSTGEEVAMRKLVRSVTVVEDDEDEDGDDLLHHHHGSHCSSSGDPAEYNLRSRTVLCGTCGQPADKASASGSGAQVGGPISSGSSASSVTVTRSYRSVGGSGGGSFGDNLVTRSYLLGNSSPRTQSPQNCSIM
UniProt P29375, sequence (P29375 whole entry, looked up): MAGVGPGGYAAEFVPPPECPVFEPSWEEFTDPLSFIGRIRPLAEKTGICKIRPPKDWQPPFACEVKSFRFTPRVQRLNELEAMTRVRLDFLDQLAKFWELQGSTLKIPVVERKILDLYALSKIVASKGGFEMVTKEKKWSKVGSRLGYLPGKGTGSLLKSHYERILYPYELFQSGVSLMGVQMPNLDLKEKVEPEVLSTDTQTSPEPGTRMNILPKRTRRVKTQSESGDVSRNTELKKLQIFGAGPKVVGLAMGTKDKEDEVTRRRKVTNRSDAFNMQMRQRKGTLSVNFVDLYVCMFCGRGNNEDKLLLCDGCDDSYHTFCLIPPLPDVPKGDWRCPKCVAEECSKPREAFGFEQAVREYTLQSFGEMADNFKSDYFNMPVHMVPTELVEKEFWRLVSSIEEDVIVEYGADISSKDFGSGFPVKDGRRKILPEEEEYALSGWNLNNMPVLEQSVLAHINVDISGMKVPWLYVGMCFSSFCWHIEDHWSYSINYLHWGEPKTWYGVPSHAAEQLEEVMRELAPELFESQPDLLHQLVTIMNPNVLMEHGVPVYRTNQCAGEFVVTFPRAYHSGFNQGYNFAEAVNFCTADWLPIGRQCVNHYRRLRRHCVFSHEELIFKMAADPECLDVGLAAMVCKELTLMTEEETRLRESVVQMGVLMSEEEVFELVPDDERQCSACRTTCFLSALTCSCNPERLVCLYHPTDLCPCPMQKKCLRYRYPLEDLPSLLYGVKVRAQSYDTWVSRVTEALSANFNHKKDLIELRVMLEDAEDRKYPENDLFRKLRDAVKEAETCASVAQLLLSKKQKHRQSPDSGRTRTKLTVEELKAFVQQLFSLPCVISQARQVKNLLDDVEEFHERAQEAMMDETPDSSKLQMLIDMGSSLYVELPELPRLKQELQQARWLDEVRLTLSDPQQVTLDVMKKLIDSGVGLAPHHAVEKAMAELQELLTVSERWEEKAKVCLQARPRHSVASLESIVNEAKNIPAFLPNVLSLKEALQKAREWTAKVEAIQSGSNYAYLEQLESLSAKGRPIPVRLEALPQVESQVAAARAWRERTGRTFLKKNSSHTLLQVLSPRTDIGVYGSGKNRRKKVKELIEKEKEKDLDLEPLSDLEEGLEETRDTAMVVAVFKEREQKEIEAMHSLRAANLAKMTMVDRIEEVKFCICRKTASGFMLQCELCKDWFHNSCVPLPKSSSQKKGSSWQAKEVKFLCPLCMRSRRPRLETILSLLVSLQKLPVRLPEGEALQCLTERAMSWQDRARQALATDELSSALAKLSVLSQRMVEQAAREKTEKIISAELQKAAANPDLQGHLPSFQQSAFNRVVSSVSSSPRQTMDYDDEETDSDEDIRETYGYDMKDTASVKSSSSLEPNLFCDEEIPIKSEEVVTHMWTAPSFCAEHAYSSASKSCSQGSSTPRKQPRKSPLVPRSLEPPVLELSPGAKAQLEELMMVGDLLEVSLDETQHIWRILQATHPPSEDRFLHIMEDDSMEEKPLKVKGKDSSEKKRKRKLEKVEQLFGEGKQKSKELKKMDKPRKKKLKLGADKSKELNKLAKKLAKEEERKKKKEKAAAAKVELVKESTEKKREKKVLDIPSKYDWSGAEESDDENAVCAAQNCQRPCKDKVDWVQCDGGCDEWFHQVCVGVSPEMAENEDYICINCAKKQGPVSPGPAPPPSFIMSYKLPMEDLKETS
UniProt P05556, sequence (P05556 whole entry, looked up): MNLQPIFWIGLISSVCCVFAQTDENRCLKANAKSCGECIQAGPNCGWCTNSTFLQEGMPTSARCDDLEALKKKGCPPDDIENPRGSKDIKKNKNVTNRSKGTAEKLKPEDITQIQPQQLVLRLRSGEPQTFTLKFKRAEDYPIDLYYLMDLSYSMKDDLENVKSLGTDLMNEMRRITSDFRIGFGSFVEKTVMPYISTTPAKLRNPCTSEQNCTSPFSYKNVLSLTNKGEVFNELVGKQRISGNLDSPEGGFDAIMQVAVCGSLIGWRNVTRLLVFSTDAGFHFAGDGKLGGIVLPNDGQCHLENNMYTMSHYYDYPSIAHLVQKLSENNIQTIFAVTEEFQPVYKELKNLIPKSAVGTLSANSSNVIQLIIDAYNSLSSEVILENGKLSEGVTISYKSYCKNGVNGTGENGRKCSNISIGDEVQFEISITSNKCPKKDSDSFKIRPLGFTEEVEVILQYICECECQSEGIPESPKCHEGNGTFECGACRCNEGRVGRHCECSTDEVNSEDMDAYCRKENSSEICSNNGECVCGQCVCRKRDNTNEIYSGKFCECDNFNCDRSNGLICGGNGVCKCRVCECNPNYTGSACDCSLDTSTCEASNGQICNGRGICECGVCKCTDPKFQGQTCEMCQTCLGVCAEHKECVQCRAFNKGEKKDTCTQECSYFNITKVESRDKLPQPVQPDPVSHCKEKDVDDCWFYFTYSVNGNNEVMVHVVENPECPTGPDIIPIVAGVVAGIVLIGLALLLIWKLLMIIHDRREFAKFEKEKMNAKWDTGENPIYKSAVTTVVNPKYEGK
UniProt Q14847, sequence (Q14847 whole entry, looked up): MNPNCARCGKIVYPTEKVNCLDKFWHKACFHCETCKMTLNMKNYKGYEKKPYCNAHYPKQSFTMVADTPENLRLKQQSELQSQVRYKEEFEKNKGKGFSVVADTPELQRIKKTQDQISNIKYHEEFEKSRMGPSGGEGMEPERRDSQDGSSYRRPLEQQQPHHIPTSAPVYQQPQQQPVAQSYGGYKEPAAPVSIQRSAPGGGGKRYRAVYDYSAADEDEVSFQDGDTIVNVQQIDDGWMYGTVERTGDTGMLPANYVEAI

Compound in one assay: CC1Cc2ccccc2N1C(=O)C1CCCN(C1)C(=O)CCl (mixture of isomers) [TRIM25 ligand 11 (diastereomer mixture)]
Kind of assay: probe-labelled cysteine peptide fold change vs DMSO (competition) (log2 fold change); higher = less target engagement (more negative = stronger competition). As to conditions: 10 µM; THP-1; incubation time: 4 h.
On to “KDM5A_P29375_838_AFVQQLFSLPCVISQAR (UniProt P29375)”, for which the “probe-labelled cysteine peptide fold change” value is -1.07.
The same measure, in the same setting: the result for “ITPR1_Q14643_1255_LAHEFLQNFCAGNQQNQALLHK (UniProt Q14643)” reads 0.145; that for “LENG8_Q96PV6_584_SLCMVK (UniProt Q96PV6)”, -0.0796.
“LMNA_P02545_570_SVTVVEDDEDEDGDDLLHHHHGSHCSSSGDPAEYNLR (UniProt P02545)”: the “probe-labelled cysteine peptide fold change” value came to 0.719.
Regarding “LDLR_P01130_34_NEFQCQDGK (UniProt P01130)”, the “probe-labelled cysteine peptide fold change” value is -0.0476.
Same read-out and setting: the result for “ITGB1_P05556_500_HCECSTDEVNSEDMDAYCR (UniProt P05556)” reads 0.0825; that for “KCTD5_Q9NXV2_25_GGIGAGLGGGLCR (UniProt Q9NXV2)”, 0.0823; that for “LIMA1_Q9UHB6_414_LLANQQVFHISCFR (UniProt Q9UHB6)”, 0.25.
“LSM12_Q3MHD2_43_CPSSSGKPNHADILLINLQYVSEVEIINDRTETPPPLASLNVSK (UniProt Q3MHD2)”: the “probe-labelled cysteine peptide fold change” value is -0.224.
Same read-out and setting: the result for “LONP1_P36776_520_ILCFYGPPGVGK (UniProt P36776)” reads -0.00908; that for “ITGB2_P05107_590_VECSGR (UniProt P05107)”, 0.104; that for “JAK1_P23458_716_DLVHGNVCTK (UniProt P23458)”, -0.0532.
The same measure, in the same setting: the same measure for “LSM2_Q9Y333_26_NDLSICGTLHSVDQYLNIK (UniProt Q9Y333)”: 0.117; for “KPNA6_O60684_427_YLVSLGCIKPLCDLLTVMDSK (UniProt O60684)”: -0.563.
Still for that read-out and setting: the result for “LCP1_P13796_336_EKDDIQRAECMLQQAER (UniProt P13796)” reads -0.561; that for “LASP1_Q14847_29+32_ACFHCETCK (UniProt Q14847)”, -0.0749.
On to “INPPL1_O15357_689_TNVPSWCDR (UniProt O15357)”, for which the “probe-labelled cysteine peptide fold change” value came out at 0.019.
For the target “LENG9_Q96B70_127_EEPFSAFCWDQPLAALGPGVLAVPQHR (UniProt Q96B70)”, the “probe-labelled cysteine peptide fold change” value is -0.211.
“LDHA_P00338_163_VIGSGCNLDSAR (UniProt P00338)”: the “probe-labelled cysteine peptide fold change” value came out at 0.0126.
For “KIAA0753_Q2KHM9_745_QLDDFLEDCASELWAVTHAK (UniProt Q2KHM9)”, the “probe-labelled cysteine peptide fold change” value was -0.271.

Still in this assay, the particulars now being: 50 µM; THP-1; incubation time: 4 h.
As for “KIF14_Q15058_850_YKPNSSHDIQLSGVLIADDHCTIK (UniProt Q15058)”, the “probe-labelled cysteine peptide fold change” value was determined as 0.0189.
Still for that read-out and setting: the result for “INTS7_Q9NVH2_618_GIASLTAASTPLNPLSFQCEFVK (UniProt Q9NVH2)” reads 0.0121; that for “IRAK3_Q9Y616_572_VNIDPSSEAPGHSCR (UniProt Q9Y616)”, -0.243; that for “IPO4_Q8TEX9_42_APAALPALCDLLASAADPQIR (UniProt Q8TEX9)”, -0.077.
On the same count and under the same terms, the result for “KEAP1_Q14145_368_SGLAGCVVGGLLYAVGGR (UniProt Q14145)” reads 0.0274; that for “LCP1_P13796_336_DDIQRAECMLQQAER (UniProt P13796)”, -0.332; that for “LMAN1_P49257_190_NNPAIVIIGNNGQIHYDHQNDGASQALASCQR (UniProt P49257)”, -0.00596.
For the target “KIF5B_P33176_632_ELAACQLR (UniProt P33176)”, the “probe-labelled cysteine peptide fold change” value is 0.0204.
On the same count and under the same terms, the same measure for “HUWE1_Q7Z6Z7_1832_HIIEDPCTLR (UniProt Q7Z6Z7)”: -0.0105; for “KLHL36_Q8N4N3_465_NLLCYDHR (UniProt Q8N4N3)”: 0.057; for “LRPPRC_P42704_930_CVANNQVETLEK (UniProt P42704)”: 0.0311.
On the same count and under the same terms, the result for “LRRFIP1_Q32MZ4_750_CEMSEHPSQTVR (UniProt Q32MZ4)” reads -0.698.
On the same count and under the same terms, the same measure for “ITPR1_Q14643_638_FLDYLSDLCVSMNK (UniProt Q14643)”: 0.00777; for “ITGA4_P13612_183_IAPCYQDYVK (UniProt P13612)”: 0.141; for “IRF8_Q02556_410_MFPDICASHQR (UniProt Q02556)”: -0.198.
Consider “KIF15_Q9NS87_949_CEQQMAK (UniProt Q9NS87)”, for which the “probe-labelled cysteine peptide fold change” value worked out at 0.0782.
Turning to “KDM5A_P29375_838_AFVQQLFSLPCVISQAR (UniProt P29375)”, the “probe-labelled cysteine peptide fold change” value was -0.206.
“ITPR1_Q14643_1255_LAHEFLQNFCAGNQQNQALLHK (UniProt Q14643)”: the “probe-labelled cysteine peptide fold change” value came out at 0.261.
Consider “HUWE1_Q7Z6Z7_3658_AQCETLSPDGLPEEQPQTTK (UniProt Q7Z6Z7)”, for which the “probe-labelled cysteine peptide fold change” value was -0.227.
The same measure, in the same setting: the same measure for “LENG8_Q96PV6_584_SLCMVK (UniProt Q96PV6)”: -0.141; for “LMNA_P02545_570_SVTVVEDDEDEDGDDLLHHHHGSHCSSSGDPAEYNLR (UniProt P02545)”: 0.0524; for “LDLR_P01130_34_NEFQCQDGK (UniProt P01130)”: -0.115.
Still for that read-out and setting: the same measure for “ITGB1_P05556_500_HCECSTDEVNSEDMDAYCR (UniProt P05556)”: 0.15.
